# Data published in PubChem BioAssay AID1347417 (National Center for Advancing Translational Sciences (NCATS), 2020).
# The whole screen tested about 120,000 compounds, of which about 5,300 (4.4%) were called active. Inconclusive results, whose numbers are uncertain, are shown with a selection of clear calls. The call rests on the fitted dose curve; in most records, active means well fitted inhibition curve with a large enough effect; inconclusive means small, poorly fitted or top-dose-only effect; inactive means no such curve, though single readings can be large or run the other way. Potencies beside an inconclusive call are fits to weak or partial responses and may not hold up.
# Assay: qHTS Primary assay for Inhibitors of Plasmodium falciparum Dd2 growth in vitro; further: nearly all actives have a fitted effect of over 65% in size;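 on activity, negative = inhibition: plate controls were DMSO vehicle for no effect and reference drug for full effect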
# Details: P. falciparum Dd2 growth, SYBR Green, 72 h; activity, negative = inhibition: at 28.9 µM (top of the series) unless noted; series mostly up to 28.9 µM
# How it was run: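 Readout: SYBR Green fluorescence, 485 nm excitation, 535 nm emission, after ~16 h lysis at 37C. Before that, Dd2-infected red cells (2.5% hematocrit) grew 72 h with compound, 29 uM top final concentration.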
# Potency means the concentration at half of the fitted maximal effect; tags describe the fitted curve by direction and shape.
Compound,Potency,"activity, negative = inhibition",outcome
CCCC(=O)N1c2nc(-c3ccco3)nn2C2(CCCCC2)[C@@H]2CCCC[C@@H]21,"inconclusive: 10 µM [inhibitor, single point]",,
Cc1ccccc1NC(=O)c1c(C)oc2ccc(O)c(CN(C)Cc3ccccc3)c12,active: 1.12 µM,,
CCc1ccc(NC(=O)c2ccc3oc(=O)n(Cc4ccccc4)c3c2)cc1,"inconclusive: 10 µM [inhibitor, single point]",,
COc1ccc(-c2ccc3nnc(CNC(=O)Cc4cccc(F)c4)n3n2)cc1,"inconclusive: 0.251 µM [inhibitor, full curve, poor fit]",,
Cc1ccc(C)c(CN2C(=O)c3ccccc3S(=O)(=O)c3ccc(C(=O)N4CCCC4)cc32)c1,"inconclusive: 11.2 µM [inhibitor, single point]",,
COc1cc2c(cc1OC1CCCC1)NC(=O)C21CCN(C(=O)c2cccc(O)c2)CC1,"inconclusive: 1.58 µM [inhibitor, partial curve, poor fit]",,
CCN(c1ncnc2c1cnn2-c1cc(Cl)ccc1C)C1CCCCC1,"inconclusive: 10 µM [inhibitor, single point]",,
O=C(Nc1ccc(F)cc1)N1C[C@@H]2OCC(=O)N(Cc3ccc(OC(F)(F)F)cc3)[C@@H]2C1,"inconclusive: 7.08 µM [inhibitor, partial curve, poor fit]",,
COc1ccc(-c2nnc3n2CCN(C(=O)Nc2ccccc2)C3)cc1,"inconclusive: 5.62 µM [inhibitor, partial curve, poor fit]",,
COc1ccccc1NC(=O)NC[C@H]1O[C@H](Cc2cc(C(C)(C)C)on2)CC[C@@H]1O,,inactive: -13.4% [at 44.1 µM],
CCCCCNc1ncnc2c1CN(C1CCNCC1)C(=O)CN2C,,inactive: -12.8%,
CN1CCC(OC2CCN(C(=O)c3ccc(F)cc3F)CC2)CC1,"inconclusive: 6.31 µM [inhibitor, partial curve, poor fit]",,
Cc1ccc(O)c(NC(=O)c2noc3c2CCCCC3)c1,active: 4.47 µM,,
Cc1cc(N2CCCN(c3ccncc3)CC2)n2nc(C)c(C)c2n1,"inconclusive: 20 µM [inhibitor, single point]",,
C=CCNC(=O)c1cnn2c1CN([S+](=O)([O-])c1cccc(OC)c1)CC2,,inactive: -18.9%,
O=C(c1cc(Cl)ccc1F)N1CCN(C(=O)c2nnn3c2COC(c2ccccc2)C3)CC1 (centres undefined),"inconclusive: 3.98 µM [inhibitor, single point]",,
CCC1CN(C(=O)N2CCC(C(=O)NCCc3ccc(C)cc3)CC2)c2ccccc2O1 (centres undefined),,,inactive
CC(C)CNC[C@H]1O[C@H](Cc2cc(CN(C)Cc3ccccc3)on2)CC[C@@H]1O,"inconclusive: 14.1 µM [inhibitor, partial curve, poor fit]",,
Cc1ccccc1C(=O)N(C)CC1CCOCC1,,inactive: 0.349%,
O=C(CCc1c[nH]c2ccccc12)N1[C@H]2CC[C@@H]1c1cnc(-c3ccc(F)cc3)nc1C2,,,inactive
Cc1ccc(-c2cn3c(n2)sc2cc(C(=O)NCc4cccs4)ccc23)cc1,"inconclusive: 0.0079 µM [inhibitor, full curve, poor fit]",,
Cc1noc(C2CC3(CCN(C(=O)c4n[nH]c5ccccc45)CC3)CN2C)n1 (centres undefined),"inconclusive: 7.94 µM [inhibitor, partial curve, poor fit]",,

Compound,Potency,"activity, negative = inhibition",outcome
COCCc1noc(-c2ccc(N(C)Cc3ncc(C)[nH]3)nc2)n1,"inconclusive: 10 µM [inhibitor, single point]",,
CNC(=O)C1CCN(Cc2cc3ccccc3n2Cc2ccccc2C)CC1,"inconclusive: 3.16 µM [inhibitor, single point]",,
CN1C(=O)C2(CCN(C(=O)c3cccc(Br)c3)C2)c2ccccc21 (centres undefined),"inconclusive: 17.8 µM [inhibitor, single point]",,
Cc1noc(C)c1CNC(=O)c1cc2c(s1)CCN(C(=O)c1ccc(Cl)cc1)C2,"inconclusive: 4.47 µM [inhibitor, partial curve, poor fit]",,
O=C([C@@H]1C[C@H](Oc2ccccc2)CN1C(=O)NC1CCCCC1)N1CCCC1,,inactive: -1.4%,
CCc1sc(Nc2ccc(C)cc2Br)nc1-c1cc2cccc(OC)c2oc1=O,"inconclusive: 17.8 µM [inhibitor, single point]",,
CCOC(=O)CSc1nc2c(sc3ccccc32)c(=O)n1Cc1ccc(C)cc1,"inconclusive: 17.8 µM [inhibitor, single point]",,
CCOC(=O)c1c(C)oc2ncnc(NCCCN3CCN(c4cc(C)ccc4C)CC3)c12,"inconclusive: 17.8 µM [inhibitor, single point]",,
COc1ccc(-c2c3c(nc4sc(C(=O)Nc5ccc(F)cc5)c(N)c24)CC(C)(C)CC3=O)cc1,active: 0.562 µM,,
COCC(=O)N1CCCN(c2cc(C3CC(O)C3)ncn2)CC1 (centres undefined),,inactive: -3.47%,
O=C(c1cc(Cl)ccc1F)N1CCCC2(C1)NC(=O)N(Cc1ccccc1)C2=O (centres undefined),"inconclusive: 1.58 µM [inhibitor, single point]",,
CCOC(=O)c1ccc(NC(=O)C2CCN(C(=O)N3CC(C)Oc4ccc(C)cc43)CC2)cc1 (centres undefined),"inconclusive: 8.91 µM [inhibitor, single point]",,
COc1ccc(CC(=O)N2CC(c3nnc(-c4ccc(C)cc4)o3)C3(CCOCC3)C2)cc1 (centres undefined),"inconclusive: 10 µM [inhibitor, single point]",,
O=C(c1ccco1)N1Cc2[nH]cnc2C[C@H]1c1nc(-c2ccncc2)no1,"inconclusive: 35.5 µM [inhibitor, partial curve, poor fit]",,
COc1ccc(CN[C@H]2C[C@H]3C(=O)NC[C@@H](CCC(=O)NCc4ccccc4)N3C2)cc1,,,inactive
c1ccc(CCCc2noc(-c3ccc(NCc4ccccn4)nc3)n2)cc1,"inconclusive: 12.6 µM [inhibitor, single point]",,
O=C(c1ccc(N2CC3CC(C2)[C@H]2CCCC(=O)N2C3)nc1)N1CCN(C2CCCCC2)CC1 (some centres undefined),,,inactive
CN1CCC(N[C@H]2C[C@@H](Cc3cc(C(C)(C)C)on3)C2(C)C)CC1,active: 5.01 µM,,
Cn1nc(C(=O)N2CCOCC(O)(CN3CCCC3)C2)ccc1=O (centres undefined),,inactive: 1.75%,
Cc1ccccc1C(=O)N1CCC2(CC1)OCC(C(=O)NC(C)C)N2C(=O)c1cccc(F)c1 (centres undefined),,inactive: -13.3%,
Cc1cccc(C(=O)Nc2ccc(-c3nc4cc(C(C)C)ccc4o3)cc2)c1,"inconclusive: 15.8 µM [inhibitor, single point]",,
COc1ccccc1N1CCN(C(=O)c2cnn(-c3ccc(C)c(C)c3)c2C2CCN(C(=O)OC(C)(C)C)CC2)CC1,"inconclusive: 3.16 µM [inhibitor, single point]",,

Compound,Potency,"activity, negative = inhibition",outcome
N#Cc1ccc(CN2CCCC3(Cc4ccccc4NC3=O)C2)cc1 (centres undefined),"inconclusive: 6.31 µM [inhibitor, partial curve]",,
Cc1noc(C)c1CC(=O)N1CC(c2noc(C3CCCN3C)n2)C1 (centres undefined),,inactive: -10.5%,
O=C(c1ccsc1)N1[C@H]2CC[C@@H]1c1cnc(-c3ccccc3)nc1C2,"inconclusive: 10 µM [inhibitor, single point]",,
Cc1ccc(C2=NC3(CCN(C(=O)c4ccccc4C)CC3)ON2)cc1,active: 6.31 µM,,
O=c1cc2nc(-c3cccs3)nc(SCCOc3ccc(Cl)cc3)n2[nH]1,"inconclusive: 20 µM [inhibitor, single point]",,
CCn1c(=N)c(C(=O)NC2CCCCC2)cc2c(=O)n3cccc(C)c3nc21,"inconclusive: 10 µM [inhibitor, single point]",,
COc1cccc(CCC(=O)N2[C@@H]3CC[C@H]2CC(NC(=O)c2ccc(F)cc2)C3)c1 (some centres undefined),"inconclusive: 10 µM [inhibitor, partial curve, poor fit]",,
CC(C)Oc1cccc2c1c(NC(=O)C1CCCO1)nn2Cc1ccccc1 (centres undefined),,,inactive
COc1ccc(Cl)cc1NC(=O)N1CC(c2noc(-c3ccncc3)n2)C1,"inconclusive: 5.01 µM [inhibitor, partial curve, poor fit]",,
Cc1ccccc1-c1nc(C(N)=O)c2c(n1)n(-c1ccc3c(c1)OCO3)c(=O)n2C,"inconclusive: 11.2 µM [inhibitor, single point]",,
C#CCN(C)C[C@H]1CN2CC[C@H]1C[C@@H]2CNC(=O)c1ccccc1,"inconclusive: 14.1 µM [inhibitor, single point]",,
COC(=O)[C@@H]1Cc2c([nH]c3ccccc23)[C@H]2C[C@@H](NCCc3cnc[nH]3)C[C@@H](c3ccccc3F)N21,,,inactive
COc1ccccc1Cn1cc(C(=O)c2ccc(Cl)cc2)c(=O)c2cc3c(cc21)OCCO3,"inconclusive: 12.6 µM [inhibitor, partial curve, poor fit]",,
C#CCCC(=O)N(Cc1cccc(C)c1)Cc1ccccc1OC,"inconclusive: 17.8 µM [inhibitor, partial curve, poor fit]",,
COc1ccc(C(=O)N[C@@H]2CCC[C@@H]2C(=O)N(C)Cc2ccccc2)cc1,,inactive: -25.4%,
COc1ccccc1CN1CC[C@@H]2CN(S(C)(=O)=O)[C@@H]2C1,,,inactive
O=C(Nc1ccc2nc(SCc3ccccc3)sc2c1)c1cccc(F)c1,"inconclusive: 8.91 µM [inhibitor, single point]",,
O=S(=O)(NC[C@H]1OC[C@@H](NCc2ccc(F)cc2)[C@@H]1O)c1ccccc1,"inconclusive: 31.6 µM [inhibitor, single point]",,
Cc1ccc(-c2nn(CC(=O)NC3CCCC3)c3c2cnc2ccc(F)cc23)cc1C,"inconclusive: 1.26 µM [inhibitor, partial curve, poor fit]",,
CC(=O)Nc1ccc(-c2c(C(C)C)nn(-c3cccc(F)c3)c2OC(C)=O)cc1,,inactive: -22.5%,
